# This is one part of the list. Shown are side measurements of this screen, not its main read-out; they come without a call.
# Legend:
# Test in all cases: Primary Screen for Target Class Profiling of Small Molecule Inhibitors of Methyltransferases
# [1] = molecular target: Glycine N-methyltransferase (Homo sapiens) (UniProt Q14749); settings: purified enzyme, MTase-Glo SAH luminescence; measured here: GNMT inhibition; at 40 µM; stronger effect = lower value
# Outline: (§1)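 Each enzyme was assayed with SAM and its substrate. SAH formation detected by MTase-Glo luminescence; single-point 40 uM screen[…].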
# [2] = molecular target: Guanidinoacetate N-methyltransferase (Homo sapiens) (UniProt Q14353); settings: purified enzyme, MTase-Glo SAH luminescence; measured here: GAMT inhibition; at 40 µM; stronger effect = lower value
# Outline: as §1
# [3] = molecular target: Histamine N-methyltransferase (Homo sapiens) (UniProt P50135); settings: purified enzyme, MTase-Glo SAH luminescence; measured here: HNMT inhibition; at 40 µM; stronger effect = lower value
# Outline: as §1
# [4] = molecular target: Nicotinamide N-methyltransferase (Homo sapiens) (UniProt P40261); settings: purified enzyme, MTase-Glo SAH luminescence; measured here: NNMT inhibition; at 40 µM; stronger effect = lower value
# Outline: as §1
# [5] = molecular target: Phenylethanolamine N-methyltransferase (Homo sapiens) (UniProt P11086); settings: purified enzyme, MTase-Glo SAH luminescence; measured here: PNMT inhibition; at 40 µM; stronger effect = lower value
# Outline: as §1
# % is scaled to controls: 0 for no effect and ±100 for the full control effect.
Structure (SMILES),"activity change, negative = inhibition [1] [%]","activity change, negative = inhibition [2] [%]","activity change, negative = inhibition [3] [%]","activity change, negative = inhibition [4] [%]","activity change, negative = inhibition [5] [%]"
CCOC(=O)c1cc2n(n1)CC(C)(C(=O)NC1CCCCC1)N(Cc1ccccc1)C2=O (stereo not given),-0.107,0.348,3.78,-5.69,-3.79
COc1cccc(CN2CCOC[C@H](Oc3ccc(C(F)(F)F)cn3)C2)c1,-7.14,-6.09,-2.03,-21.2,-31.7
CN(C)CCn1cc(-c2ccc(F)cc2)c(-n2cccc2)n1,-2.2,1.14,1.89,-13.7,-4.52
CCCC1c2cccn2CCN1C(=O)Nc1cccc(C)c1 (stereo not given),-2.32,1.16,-13,-1.66,1.59
CO[C@H]1C[C@@H](O)C12CCN(C(=O)CCc1ccc(-c3cccs3)o1)CC2,-24.7,-10.4,-5.48,-14,-11
Cn1c2c(c3ccccc31)C(C(=O)NCc1ccccc1)N(c1ccccc1Cl)C(=O)CS2 (stereo not given),4.85,0,2.73,-2.92,-0.574
O=C1CCC(N2C(=O)c3ccccc3C2=O)C(=O)N1 (stereo not given),0.591,10.8,6.67,-4.14,6.21
COc1ccccc1CNc1nc2c(S(=O)(=O)c3ccc(Br)cc3)nnn2c2ccccc12,2.59,0,4.16,-2.87,-2.31
CCCn1c(=O)c2ccc(C(=O)NCC(C)C)cc2n2c(=O)n(Cc3ccccc3Cl)nc12,-4.32,3.75,1.47,-1.24,0.974
CC1(C(=O)NCc2ccccc2)Cn2c(ccc2-c2ccco2)C(=O)N1c1ccc(Br)cc1 (stereo not given),-17.9,-2.59,-3.27,-18.9,-12.8
CC(C)CCn1c(=O)c2ccc(C(=O)NC3CCCCC3)cc2n2c(=O)n(Cc3ccccc3)nc12,9.11,2.39,11.5,7.63,9.65
Cc1cnc(CC2CCN(S(=O)(=O)c3ccc4c(c3)CCC4)CC2)n1CC1CC1,-9.3,-6,-42.6,-44.1,-8.71
CC(C)CCn1c(=O)c2ccccc2n2c(CCC(=O)N3CCN(c4cccc(Cl)c4)CC3)nnc12,-10.3,4.16,0.418,-46.3,-3.93
COc1ccccc1N1CCN(C(=O)CCc2nnc3n(Cc4ccc(F)cc4)c(=O)c4ccccc4n23)CC1,-8.97,2.35,-3.71,-5.36,-1.27
O=C(Nc1ccc(N2CCC(C(=O)N3CCOCC3)CC2)cc1)c1cnc(Oc2ccccc2)nc1,-5.32,-6.15,1.05,-19,-5.4
CCc1cc2c(cc3n2CC(C)(C(=O)NC2CCCCCC2)N(Cc2ccccn2)C3=O)s1 (stereo not given),-1.78,7.35,2.54,-23.4,0.689
Cc1ccc(N2C(=O)c3ccc(-c4ccco4)n3CC2(C)C(=O)NCc2ccc(Cl)cc2)cc1F (stereo not given),-5.97,4.74,2.73,-0.191,-2.87

# Source: PubChem BioAssay AID1745853 (National Center for Advancing Translational Sciences (NCATS), 2022)
